Data published in PMC4336329 (PLoS ONE, 2015).
Among all 310,000 compounds or so, about 14,000 (4.5%) showed an effect of 50% or more. The effect is printed as a negative number. This is one part of the list.

target: human ether-à-go-go-related gene (hERG) potassium channel (human, UniProt Q12809); assay: primary screen, population patch clamp on CHO cells stably expressing hERG
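Further: peak tail current of the secondary pulse compared with the same well before compound.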

Sequence of human ether-à-go-go-related gene (hERG) potassium channel (Q12809 whole entry, looked up): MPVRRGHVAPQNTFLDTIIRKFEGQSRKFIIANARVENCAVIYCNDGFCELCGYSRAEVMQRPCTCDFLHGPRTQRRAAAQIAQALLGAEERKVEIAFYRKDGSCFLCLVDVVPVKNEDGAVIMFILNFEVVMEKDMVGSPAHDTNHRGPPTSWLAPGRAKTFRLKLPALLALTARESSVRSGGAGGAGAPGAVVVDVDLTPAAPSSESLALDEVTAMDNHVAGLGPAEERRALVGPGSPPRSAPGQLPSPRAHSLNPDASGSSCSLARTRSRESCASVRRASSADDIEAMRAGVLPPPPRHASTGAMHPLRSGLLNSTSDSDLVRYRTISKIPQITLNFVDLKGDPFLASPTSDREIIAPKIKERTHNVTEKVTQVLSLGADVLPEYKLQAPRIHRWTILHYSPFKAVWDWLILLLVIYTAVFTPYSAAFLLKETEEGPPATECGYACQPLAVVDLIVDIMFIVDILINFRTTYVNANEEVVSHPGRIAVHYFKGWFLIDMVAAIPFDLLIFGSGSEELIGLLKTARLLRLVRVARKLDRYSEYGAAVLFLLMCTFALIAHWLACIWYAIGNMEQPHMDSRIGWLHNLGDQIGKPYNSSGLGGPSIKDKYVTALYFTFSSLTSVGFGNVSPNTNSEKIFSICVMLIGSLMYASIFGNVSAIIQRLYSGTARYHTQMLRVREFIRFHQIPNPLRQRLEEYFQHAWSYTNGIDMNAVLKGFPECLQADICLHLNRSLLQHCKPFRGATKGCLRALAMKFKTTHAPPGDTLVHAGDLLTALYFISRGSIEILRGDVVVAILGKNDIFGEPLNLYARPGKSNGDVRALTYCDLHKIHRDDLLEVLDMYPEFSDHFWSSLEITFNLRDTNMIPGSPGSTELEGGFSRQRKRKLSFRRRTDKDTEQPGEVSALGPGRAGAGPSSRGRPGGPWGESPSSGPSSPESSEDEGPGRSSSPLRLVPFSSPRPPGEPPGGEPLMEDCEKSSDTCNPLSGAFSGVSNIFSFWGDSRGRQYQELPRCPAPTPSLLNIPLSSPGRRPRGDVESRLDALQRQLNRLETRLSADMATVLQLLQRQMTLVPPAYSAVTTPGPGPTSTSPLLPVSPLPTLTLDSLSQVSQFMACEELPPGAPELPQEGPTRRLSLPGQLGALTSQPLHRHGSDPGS

SMILES | hERG current change (%, negative = inhibition) at 10uM [%]
Cc1ccccc1/C=C/c1nc2ccccc2c(=O)n1CCc1ccccc1 | 3.43
CCN(CC)S(=O)(=O)c1ccc(C(=O)N2CCN=C2SCc2cccnc2)cc1 | -8.04
O=c1c2[nH]c3ccc(Cl)cc3c2ncn1CCN1CCCCC1 | -68
CCc1cc(C(c2ccccn2)N2CCN(C)CC2)c(NC(=O)c2ccccc2)s1 (stereo not shown) | -59.1
Cc1ccc(C(=O)c2oc3ccccc3c2N)cc1 | -7.77
Clc1ccc(C(c2nnnn2C2CCCC2)N2CCSCC2)cc1 (stereo not shown) | -24.4
COc1cc2c(cc1OC)CN(C(=O)c1ccco1)CC2 | 16.2
CN1Cc2cccnc2N(C)Cc2cc(Cl)ccc21 | -11.8
CCOC(=O)CCc1c(C)nc2ncnn2c1C | -12.9
CCNc1nc(CC)nc2c1oc1ccccc12.Cl | -11.5
Cn1c(=O)c2c([nH]c(=O)n2C)n(C)c1=O | 29.7
NNC(=S)Nc1cc(S(=O)(=O)N2CCOCC2)ccc1N1CCOCC1 | 9.82
CC1(c2ccc3c(c2)OCCCO3)NC(=O)N(CC(=O)Nc2cccc(C#N)c2)C1=O (stereo not shown) | -1.95
COc1ccc(F)cc1S(=O)(=O)N1CCN(c2ccccn2)CC1 | 9.28
CCS(=O)(=O)N1Cc2ccccc2CC1C(=O)Nc1ncc(C)s1 (stereo not shown) | 6.32
O=[N+]([O-])c1ccc(CN2CCN(c3ncccn3)CC2)cc1 | -32.2
CC(OC(=O)CN1C(=O)c2ccccc2C1=O)C(=O)c1ccccc1 (stereo not shown) | -10.6
Cc1onc(C(=O)N2C(C)CCCC2C)c1[N+](=O)[O-] (stereo not shown) | 7.46
COc1ccc(NC(=O)CCNS(=O)(=O)c2ccc(Cl)c([N+](=O)[O-])c2)cc1S(N)(=O)=O | 15.6
COc1ccc(-n2c(Cc3cccn3C)nnc2SCC(=O)Nc2cccc(F)c2)cc1 | -54.3
Cc1ccc(C=Nc2cccnc2N)cc1 | 7.96
COc1cc(/C=N/n2cnnc2)ccc1OCC(=O)N1CCOCC1 | 20.4
O=C(CN1C(=O)c2ccccc2C1=O)Nc1ccccc1N1CCOCC1 | 3.78

SMILES | hERG current change (%, negative = inhibition) at 10uM [%]
CNc1nc(-c2ccc3c(c2)CCN3C(=O)c2ccccc2C)cs1 | -14.4
O=C(CCC(=O)c1ccccc1)NCc1cccc(C(F)(F)F)c1 | 4.89
COc1ccccc1C1=NOC(Cn2c(NCCCO)nc3c2c(=O)n(C)c(=O)n3C)C1 (stereo not shown) | -4.28
COc1ccc(NC2=CC(=O)CC(C)(C)C2)cc1 | 7.6
O=C(CCNC(=O)N1C[C@H]2C[C@@H](C1)c1cccc(=O)n1C2)Nc1ccc(F)cc1 | 20.6
CC(C)Oc1ccc(C(=O)OCC(=O)N2CCCc3ccccc32)cc1 | 6.85
CCCCNC(=O)Nc1ccon1 | 5.29
CCOc1ccc(C(=O)OCC(=O)NC(C)C)cc1 | 22.3
CC(=NCCC1=CCCCC1)c1c(O)[nH]c(=O)[nH]c1=O | -3
CC(=O)c1sc(NC(=O)C(C)(C)C)nc1C | 11.6
COc1ccc(C(=O)N2CCCCC2C(=O)Nc2ccc(-n3nc(C)cc3C)cc2)o1 (stereo not shown) | -13.8
CCN(CC)CCN1C(=O)C(=O)/C(=C(/O)c2ccncc2)C1c1ccccc1 (stereo not shown) | 18.4
COc1cc(NCC(=O)Nc2cccc(S(=O)(=O)N3CCCCC3)c2)cc(OC)c1OC | -13.9
Cc1ccc(NC(=O)CCN2CCN(C/C=C/c3ccccc3)CC2)cc1C.Cl | -71.8
COCCn1c(SCC(=O)NC2CCCCC2)nnc1-c1ccco1 | 5.35
O=C(Cn1cc(C(F)(F)F)ccc1=O)N/N=C/c1ccc(Cl)cc1Cl | -3.24
CCc1ccc(C(=O)CSc2nc(C)cc(=O)[nH]2)cc1 | 8.79
CCOc1ccc(NC(=O)CN(C)C(=O)c2ccc(C)o2)cc1OCC | 25.5
O=C(N/C(=C\c1cccnc1)C(=O)N1CCC(O)CC1)c1ccccc1 | 21.9
COc1cccc(OCc2cc(C(=O)N(C)Cc3nccn3C)no2)c1 | 2.52
CC(Oc1ccccc1)C(=O)Nc1cccc(-c2nc3ccccc3[nH]2)c1 (stereo not shown) | -35.8
Cn1cnc(S(=O)(=O)Nc2ccccc2C(=O)NCC2CC2)c1 | 13.7
COc1ccc(C2(NC(C)=O)CCN(Cc3cccnc3)CC2)cc1 | 11.1

SMILES | hERG current change (%, negative = inhibition) at 10uM [%]
CC1CCCCN1S(=O)(=O)c1ccc(S(=O)(=O)N2CCN(C)CC2)cc1 (stereo not shown) | 16.2
CC(=O)CSc1nnc(Cc2ccc3c(c2)OCO3)o1 | 4.9
CCCn1c(N)c(N(CCOC)C(=O)c2cccc(F)c2)c(=O)[nH]c1=O | 22.9
COCCCn1c(SCC(=O)Nc2cccc(C)n2)nnc1-c1ccco1 | -69.3
O=C(/C=C/c1cccc(Cl)c1)Nc1ncccn1 | -12
COc1cc(C(=O)N2c3ccccc3CCC2C)cc(OC)c1OC (stereo not shown) | 5.32
CCOC(=O)Cc1c(C)c2c(C)nn(-c3ccccc3)c2oc1=O | -14.6
Cc1ccc2ncc(S(=O)(=O)c3ccccc3)c(N3CCCCC3C)c2c1 (stereo not shown) | 18.7
COc1cc(C(=O)N2CCN(Cc3ccc4c(c3)OCO4)CC2)cc(OC)c1OC.O=C(O)C(=O)O | -23.5
O=C(COC(=O)CCC1CCCC1)Nc1ccccc1Sc1ccccc1 | 22.1
CCNC(=O)NC(=O)C(C)SCc1ccccc1C (stereo not shown) | 16.9
CC(NC(=O)CN1CCN(c2ncccn2)CC1)c1ccc(F)cc1 (stereo not shown) | -8.03
COc1ccc(C)cc1-n1nnnc1SCC1CCCO1 (stereo not shown) | -11.9
CCCC(C)NC(=O)CN1C(=O)c2cccc3cccc1c23 (stereo not shown) | 1.42
CCC1(CC)Cc2ccccc2-c2nc(CN3CCOCC3)[nH]c(=O)c21 | 0.538
Cc1cccc(N(Cc2ccccc2)C(=O)c2ccc(C)c(S(=O)(=O)N3CCOCC3)c2)c1 | -17.6
O=C(Nc1ccccc1NC(=O)c1ccco1)c1ccco1 | -9.67
COC(=O)C1=C(C)NC(=O)CC1c1ccc(F)c(Br)c1 (stereo not shown) | -7.19
CC(=O)c1cccc(OCc2cc(C(=O)N(C)Cc3ccc(C)o3)no2)c1 | -3.16
COc1cccc(OC)c1C(=O)Nc1ccc(Cc2ccncc2)cc1 | 8.86
Cc1cccc(-c2cccc(NC(=O)C3CCCN(C(=O)c4ocnc4C)C3)c2)c1 (stereo not shown) | -53
Cc1[nH]n(-c2cccc3ccccc23)c(=O)c1/C=N/NC(=O)c1cccc([N+](=O)[O-])c1 | -11.8
COc1ccc(Cl)cc1NC(=S)NCCc1ccc(S(N)(=O)=O)cc1 | 5.52

SMILES | hERG current change (%, negative = inhibition) at 10uM [%]
CC(=O)Nc1ccc(OC(=O)C(CCS(C)(=O)=O)N2C(=O)c3ccccc3C2=O)cc1 (stereo not shown) | 10.7
CCOC(=O)CC1=C(C(=O)OCC)C(c2cccs2)C(C#N)=C(N)O1 (stereo not shown) | 5.17
COc1ccc(Cl)cc1Nc1nc(-c2cccnc2)cs1 | 5.19
COc1ccc(C(C)(C)C)cc1NC(=O)c1c(C)noc1C | -13.8
CCc1ccc(C(=O)NNC(=O)OC)cc1 | 8.49
CN1CCN(C(=O)c2ccc(CSc3ccc(Cl)cc3)cc2)CC1 | -38.1
CCN(CC)C(=O)CSc1nnc(-c2ccccc2)n1-c1ccccc1 | 17.8
COC(=O)C1=C(C(=O)OC)C2(OC1c1ccccc1C)C(=O)c1ccccc1C2=O (stereo not shown) | 15.6
Cc1ccc2oc(=S)n(C)c2c1 | -5.64
Nc1cc(=O)[nH]c2nnc(SCC(=O)Nc3cccc4ccccc34)n12 | 6.6
CC(C)(C)NC(=O)c1ccc(COCC(F)(F)F)o1 | -4.16
Cc1cc(C)c2c(NC(=O)C3CC3)nn(C)c2n1 | 4.48
COc1ccc(/C(N)=N/OC(=O)Cc2ccccc2[N+](=O)[O-])cc1 | -10.2
O=C(CNC(=O)c1cccs1)Nc1ccc2c(c1)OCCO2 | -5.45
O=C(CSc1nnc(Cc2csc(Nc3cccc(Cl)c3)n2)o1)N1CCc2ccccc21 | 0.477
COc1ccc(C(=O)NCc2nnc(SCC(=O)Nc3ccccc3OC)o2)cc1 | -7.3
CC(C)[C@H](NC(=O)c1ccccc1)C(=O)OCC(=O)/C=C1/N(C)c2ccccc2C1(C)C | -19.3
CCOc1ccc(Cl)cc1CNCCc1ccc(F)cc1.Cl | -48
CC1CCN(CC(=O)NCc2ccco2)CC1 | 10.9
CCCCCCCC(=O)N/N=C(\C)c1ccc(N)cc1 | -17.4
O=C(OCc1nc2ccccc2s1)c1cccc(S(=O)(=O)N2CCOCC2)c1 | 3.97
CCOC(=O)c1n[nH]n(-c2cc(Cl)cc(Cl)c2)c1=O | 25.7
